Columns and labels:
Teratogenetic study, rat = conditions: 250 mg/kg/day oral
[1] = Acute toxicity in the rabbit by esophageal administration; assay type: in vivo
[2] = Teratogenetic study, male and female mice and rats (summary); conditions: either group
[3] = Subacute toxicity in the mouse, gastric gavage 15 days; conditions: for Dead/Treated: 15 days; for SGPT: 24 hrs. after last dose
[4] = Acute toxicity in the rat
[5] = Teratogenetic study, mouse; conditions: 250 mg/kg/day oral
[6] = Chronic toxicity in the female mouse, gastric gavage 18 weeks; conditions: for Body Weight (m ± SE) Termination: 18 weeks; for Fresh Organ-to-Body Weight Ratio, Kidneys / Fresh Organ-to-Body Weight Ratio, Liver: m ± SE, 4 animals; for SGOT: mean of 6 animals, 24 hours after last dose
[7] = Acute toxicity in female mice; assay type: in vivo, mouse
[8] = Subacute toxicity in female rats, gastric gavage 21 days; conditions: 2 g/kg/day, 5 animals, HS
[9] = Toxicity of CO-2 in the same manner as for CO-1; conditions: same manner as described for CO-1

SMILES: Nc1nccc(C=Cc2c[n+]([O-])c3ccccc3[n+]2[O-])n1 [CO-1, 2-[2-(2-amino-4-pyrimidinyl)ethenyl]-quinoxaline 1,4-dioxide]
- No. of Fetuses with Malformations (Teratogenetic study, rat): 0
- Pregnant/Treated Animals (Teratogenetic study, rat): 7/10
- Body Weight Start ([1]; 500 mg/kg, baseline): 2000 to 2100 g
- dead out of treated animals within 4 days ([1]; footnote to 2000 mg/kg): two dead out of seven treated animals
- malformations [2]: No malformations in either group were observed
- Dead/Treated ([3]; 500 mg/kg/day oral): 0/10
- Dead/Treated ([3]; 1 g/kg/day in H2O): 2/12
- Dead/Treated ([3]; 1 g/kg/day in adraganth gum): 3/12
- SGPT ([3]; CO-1 in adraganth gum): 10 Units/ml
- SGPT ([3]; CO-1 in water): 9 Units/ml
- Dead/Treated within 7 days (cumulative, regardless of sex) ([4]; esophageal, 4000 mg/kg): 0/16
- Dead/Treated within 7 days (cumulative, regardless of sex) ([4]; intraperitoneal, 500 mg/kg): 4/16
- No. of Fetuses with Malformations [5]: 0
- Pregnant/Treated Animals ([5]; result might be casual, should be repeated): 3/10
- Body Weight (m ± SE) Termination ([6]; 250 mg/kg/day): 26.7 ± 0.7 g
- Fresh Organ-to-Body Weight Ratio, Kidneys ([6]; 250 mg/kg/day): 0.87 ± 0.08
- Fresh Organ-to-Body Weight Ratio, Liver ([6]; 250 mg/kg/day): 4.57 ± 0.25
- SGOT ([6]; 250 mg/kg/day): 118 Units/ml
- Body Weight (m ± SE) Start ([6]; 250 mg/kg/day, baseline): 27.3 ± 0.5 g
- Body Weight (m ± SE) Termination ([6]; 500 mg/kg/day): 30.0 ± 0.7 g
- Fresh Organ-to-Body Weight Ratio, Kidneys ([6]; 500 mg/kg/day): 1.07 ± 0.04
- Fresh Organ-to-Body Weight Ratio, Liver ([6]; 500 mg/kg/day): 4.66 ± 0.91
- SGOT ([6]; 500 mg/kg/day): 159 Units/ml
- Dead/Treated Animals after 7 days ([7]; endoperitoneal, 250 mg/kg): 0/18
- Dead/Treated Animals after 7 days ([7]; endoperitoneal, 500 mg/kg): 6/12
- Dead/Treated Animals after 2 days ([7]; endoperitoneal, 1000 mg/kg): 6/6
- Dead/Treated Animals after 7 days ([7]; endoperitoneal, 1000 mg/kg): 6/6
- Dead/Treated Animals after 1 day ([7]; endoperitoneal, 2000 mg/kg): 6/6
- Dead/Treated Animals after 7 days ([7]; endoperitoneal, 2000 mg/kg): 6/6
- Dead/Treated Animals after 7 days ([7]; esophageal, 1000 mg/kg): 0/12
- Dead/Treated Animals after 7 days ([7]; esophageal, 2000 mg/kg): 0/12
- Dead/Treated Animals after 4 days ([7]; esophageal, 4000 mg/kg): 1/12
- Dead/Treated Animals after 7 days ([7]; esophageal, 4000 mg/kg): 1/12
- Average Percent Weight of Fresh Organs (m ± SE), Liver [8]: 4.54 ± 0.10%

SMILES: Cc1cc(C=Cc2c[n+]([O-])c3ccccc3[n+]2[O-])nc(N)n1 [CO-2, 2-[2-(2-amino-6-methyl-4-pyrimidinyl)ethenyl]-quinoxaline 1,4-dioxide]
- toxicity compared with CO-1 [9]: Comparable results are obtained
